Further values from the same series stand in other lists.
Test: Single dose PK in healthy subjects (Cohorts 1, 2, S1 and S2), plasma
Assay type: in vivo, human
Settings: for Plasma Concentration of Cmpd A, Maximum / Plasma Concentration of Cmpd A, Mean / Plasma Concentration of Cmpd A, Median / Plasma Concentration of Cmpd A, Minimum / Plasma Concentration of Cmpd A, Q1 / Plasma Concentration of Cmpd A, Q3: 180 mg single IV infusion
Procedure: This study investigates (i) the safety and tolerability of Compound A (methyl (2R,3S)-3-((methylsulfonyl)amino)-2-(((cis-4-phenylcyclohexyl)oxy)methyl)piperidine-1-carboxylate) when a single dose given as a 9 hour continuous IV infusion is administered to healthy adults, healthy elderly subjects and patients with narcolepsy type 1 (NT1); (ii) the pharmacokinetics of Compound A when a single dose given as a 9 hour continuous IV infusion is administered to healthy adults, healthy elderly subjects and patients with narcolepsy type 1; and (iii) the pharmacodynamics (PD) effects of Compound A, primarily by evaluation of the sleep latency on MWT when a single dose given as a 9 hour continuous IV infusion is administered to patients with narcolepsy type 1.
Pharmacokinetics: Concentrations of Compound A in plasma, and CSF, and pharmacokinetics parameters.
On average, the time to reach the plateau appeared to be approximately 3 to 4 hours after the start of infusion. […] After switching off the IV infusion, Compound A plasma concentrations declined rapidly and in a biphasic manner with a mean terminal disposition phase t1/2z ranging approximately from 3.4 to 5.1 hours across all doses. […] Table 5 provides a summary of plasma concentrations of Compound A after a single IV infusion in healthy subjects. Table 6 provides a summary of pharmacokinetic parameters of Compound A after a single IV infusion in healthy subjects.

[1] = 112 mg, 2 hr After End of Infusion
[2] = 112 mg, 3 hr After End of Infusion
[3] = 112 mg, 4 hr After End of Infusion
[4] = 112 mg, 6 hr After End of Infusion
[5] = 112 mg, 10 hr After End of Infusion
[6] = 112 mg, 15 hr After End of Infusion
[7] = 134.4 mg, 0.33 hr After End of Infusion
[8] = 134.4 mg, 0.5 hr After End of Infusion
[9] = 134.4 mg, 0.75 hr After End of Infusion
[10] = 134.4 mg, 1 hr After End of Infusion
[11] = 134.4 mg, 1.5 hr After End of Infusion
[12] = 134.4 mg, 2 hr After End of Infusion
[13] = 134.4 mg, 3 hr After End of Infusion
[14] = 134.4 mg, 4 hr After End of Infusion
[15] = 134.4 mg, 6 hr After End of Infusion
[16] = 134.4 mg, 10 hr After End of Infusion
[17] = 134.4 mg, 15 hr After End of Infusion

COC(=O)N1CCC[C@H](NS(C)(=O)=O)[C@@H]1CO[C@H]1CC[C@@H](c2ccccc2)CC1 [Compound A, methyl (2R,3S)-3-((methylsulfonyl)amino)-2-(((cis-4-phenylcyclohexyl)oxy)methyl)piperidine-1-carboxylate]
Plasma concentration, Q1 [1]: 33.00 ng/mL
Plasma concentration, Q3 [1]: 49.20 ng/mL
Plasma concentration, Maximum [2]: 53.3 ng/mL
Plasma concentration, Mean [2]: 38.13 ng/mL
Plasma concentration, Median [2]: 39.25 ng/mL
Plasma concentration, Minimum [2]: 19.7 ng/mL
Plasma concentration, Q1 [2]: 30.00 ng/mL
Plasma concentration, Q3 [2]: 47.30 ng/mL
Plasma concentration, Maximum [3]: 48.3 ng/mL
Plasma concentration, Mean [3]: 30.68 ng/mL
Plasma concentration, Median [3]: 30.45 ng/mL
Plasma concentration, Minimum [3]: 17.4 ng/mL
Plasma concentration, Q1 [3]: 19.70 ng/mL
Plasma concentration, Q3 [3]: 37.80 ng/mL
Plasma concentration, Maximum [4]: 29.0 ng/mL
Plasma concentration, Mean [4]: 17.42 ng/mL
Plasma concentration, Median [4]: 17.25 ng/mL
Plasma concentration, Minimum [4]: 9.58 ng/mL
Plasma concentration, Q1 [4]: 9.840 ng/mL
Plasma concentration, Q3 [4]: 21.60 ng/mL
Plasma concentration, Maximum [5]: 17.3 ng/mL
Plasma concentration, Mean [5]: 8.967 ng/mL
Plasma concentration, Median [5]: 9.435 ng/mL
Plasma concentration, Minimum [5]: 3.40 ng/mL
Plasma concentration, Q1 [5]: 4.130 ng/mL
Plasma concentration, Q3 [5]: 10.10 ng/mL
Plasma concentration, Maximum [6]: 9.32 ng/mL
Plasma concentration, Mean [6]: 3.897 ng/mL
Plasma concentration, Median [6]: 3.055 ng/mL
Plasma concentration, Minimum [6]: 1.30 ng/mL
Plasma concentration, Q1 [6]: 1.610 ng/mL
Plasma concentration, Q3 [6]: 5.040 ng/mL
Plasma concentration, Mean (112 mg, Predose): 0.000 ng/mL
Plasma concentration, Maximum [7]: 183 ng/mL
Plasma concentration, Mean [7]: 140.5 ng/mL
Plasma concentration, Median [7]: 138.0 ng/mL
Plasma concentration, Minimum [7]: 105 ng/mL
Plasma concentration, Q1 [7]: 122.0 ng/mL
Plasma concentration, Q3 [7]: 157.0 ng/mL
Plasma concentration, Maximum [8]: 150 ng/mL
Plasma concentration, Mean [8]: 123.2 ng/mL
Plasma concentration, Median [8]: 127.0 ng/mL
Plasma concentration, Minimum [8]: 101 ng/mL
Plasma concentration, Q1 [8]: 102.0 ng/mL
Plasma concentration, Q3 [8]: 132.0 ng/mL
Plasma concentration, Maximum [9]: 135 ng/mL
Plasma concentration, Mean [9]: 108.7 ng/mL
Plasma concentration, Median [9]: 112.5 ng/mL
Plasma concentration, Minimum [9]: 82.4 ng/mL
Plasma concentration, Q1 [9]: 83.70 ng/mL
Plasma concentration, Q3 [9]: 126.0 ng/mL
Plasma concentration, Maximum [10]: 118 ng/mL
Plasma concentration, Mean [10]: 92.57 ng/mL
Plasma concentration, Median [10]: 90.65 ng/mL
Plasma concentration, Minimum [10]: 75.2 ng/mL
Plasma concentration, Q1 [10]: 78.90 ng/mL
Plasma concentration, Q3 [10]: 102.0 ng/mL
Plasma concentration, Maximum [11]: 115 ng/mL
Plasma concentration, Mean [11]: 81.10 ng/mL
Plasma concentration, Median [11]: 75.80 ng/mL
Plasma concentration, Minimum [11]: 65.4 ng/mL
Plasma concentration, Q1 [11]: 66.20 ng/mL
Plasma concentration, Q3 [11]: 88.40 ng/mL
Plasma concentration, Maximum [12]: 81.5 ng/mL
Plasma concentration, Mean [12]: 56.18 ng/mL
Plasma concentration, Median [12]: 52.20 ng/mL
Plasma concentration, Minimum [12]: 42.1 ng/mL
Plasma concentration, Q1 [12]: 44.70 ng/mL
Plasma concentration, Q3 [12]: 64.40 ng/mL
Plasma concentration, Maximum [13]: 62.0 ng/mL
Plasma concentration, Mean [13]: 41.53 ng/mL
Plasma concentration, Median [13]: 40.60 ng/mL
Plasma concentration, Minimum [13]: 22.2 ng/mL
Plasma concentration, Q1 [13]: 32.50 ng/mL
Plasma concentration, Q3 [13]: 51.30 ng/mL
Plasma concentration, Maximum [14]: 46.7 ng/mL
Plasma concentration, Mean [14]: 33.52 ng/mL
Plasma concentration, Median [14]: 33.20 ng/mL
Plasma concentration, Minimum [14]: 18.5 ng/mL
Plasma concentration, Q1 [14]: 27.80 ng/mL
Plasma concentration, Q3 [14]: 41.70 ng/mL
Plasma concentration, Maximum [15]: 30.5 ng/mL
Plasma concentration, Mean [15]: 19.28 ng/mL
Plasma concentration, Median [15]: 18.25 ng/mL
Plasma concentration, Minimum [15]: 9.56 ng/mL
Plasma concentration, Q1 [15]: 16.10 ng/mL
Plasma concentration, Q3 [15]: 23.00 ng/mL
Plasma concentration, Maximum [16]: 21.8 ng/mL
Plasma concentration, Mean [16]: 10.45 ng/mL
Plasma concentration, Median [16]: 9.030 ng/mL
Plasma concentration, Minimum [16]: 5.43 ng/mL
Plasma concentration, Q1 [16]: 6.380 ng/mL
Plasma concentration, Q3 [16]: 11.00 ng/mL
Plasma concentration, Maximum [17]: 10.9 ng/mL
Plasma concentration, Mean [17]: 4.465 ng/mL
Plasma concentration, Median [17]: 3.635 ng/mL
Plasma concentration, Minimum [17]: 1.54 ng/mL
Plasma concentration, Q1 [17]: 2.300 ng/mL
Plasma concentration, Q3 [17]: 4.780 ng/mL
Plasma Concentration of Cmpd A, Maximum (0.33 hr After End of Infusion): 201 ng/mL
Plasma Concentration of Cmpd A, Mean (0.33 hr After End of Infusion): 161.2 ng/mL
Plasma Concentration of Cmpd A, Median (0.33 hr After End of Infusion): 157.5 ng/mL
Plasma Concentration of Cmpd A, Minimum (0.33 hr After End of Infusion): 141 ng/mL
Plasma Concentration of Cmpd A, Q1 (0.33 hr After End of Infusion): 144.0 ng/mL
Plasma Concentration of Cmpd A, Q3 (0.33 hr After End of Infusion): 166.0 ng/mL
Plasma Concentration of Cmpd A, Maximum (0.5 hr After End of Infusion): 173 ng/mL
Plasma Concentration of Cmpd A, Mean (0.5 hr After End of Infusion): 138.8 ng/mL
Plasma Concentration of Cmpd A, Median (0.5 hr After End of Infusion): 137.5 ng/mL
Plasma Concentration of Cmpd A, Minimum (0.5 hr After End of Infusion): 117 ng/mL
Plasma Concentration of Cmpd A, Q1 (0.5 hr After End of Infusion): 120.0 ng/mL
Plasma Concentration of Cmpd A, Q3 (0.5 hr After End of Infusion): 148.0 ng/mL
Plasma Concentration of Cmpd A, Maximum (0.75 hr After End of Infusion): 134 ng/mL
Plasma Concentration of Cmpd A, Mean (0.75 hr After End of Infusion): 124.7 ng/mL
Plasma Concentration of Cmpd A, Median (0.75 hr After End of Infusion): 128.0 ng/mL
Plasma Concentration of Cmpd A, Minimum (0.75 hr After End of Infusion): 101 ng/mL
Plasma Concentration of Cmpd A, Q1 (0.75 hr After End of Infusion): 127.0 ng/mL
Plasma Concentration of Cmpd A, Q3 (0.75 hr After End of Infusion): 130.0 ng/mL
Plasma Concentration of Cmpd A, Maximum (1 hr After End of Infusion): 120 ng/mL

Source: patent publication US20220339143A1, “TAK-925 FOR USE IN TREATING NARCOLEPSY” (Takeda Pharmaceutical Company Limited, priority 2019, published 2022)
